Reference: PubChem BioAssay AID1159614 (National Center for Advancing Translational Sciences (NCATS), 2016)
Out of some 45,000 compounds screened, about 65 (0.1%) were called active. The call rests on the fitted dose curve; in most records, active means well fitted activation curve with a large enough effect; inconclusive means small, poorly fitted or top-dose-only effect; inactive means no such curve, though single readings can be large or run the other way. The list shows a part of the results.

biological target: Galactocerebrosidase (Homo sapiens) (UniProt P54803); experiment: A Novel Cell-Based Assay to Identify Small Molecules for B -Galactocerebrosidase; conditions: 145M-Twi-hGALC-G270D cells (Twitcher mouse brain line with human GALC G270D), HMU-beta-Gal fluorescence, 48 h; series mostly up to 57.5 µM; activation: at the top concentration; further: 0% is about no effect; nearly all actives have a fitted effect of over 65% in size
Chain of UniProt P54803 (P54803 whole entry, looked up): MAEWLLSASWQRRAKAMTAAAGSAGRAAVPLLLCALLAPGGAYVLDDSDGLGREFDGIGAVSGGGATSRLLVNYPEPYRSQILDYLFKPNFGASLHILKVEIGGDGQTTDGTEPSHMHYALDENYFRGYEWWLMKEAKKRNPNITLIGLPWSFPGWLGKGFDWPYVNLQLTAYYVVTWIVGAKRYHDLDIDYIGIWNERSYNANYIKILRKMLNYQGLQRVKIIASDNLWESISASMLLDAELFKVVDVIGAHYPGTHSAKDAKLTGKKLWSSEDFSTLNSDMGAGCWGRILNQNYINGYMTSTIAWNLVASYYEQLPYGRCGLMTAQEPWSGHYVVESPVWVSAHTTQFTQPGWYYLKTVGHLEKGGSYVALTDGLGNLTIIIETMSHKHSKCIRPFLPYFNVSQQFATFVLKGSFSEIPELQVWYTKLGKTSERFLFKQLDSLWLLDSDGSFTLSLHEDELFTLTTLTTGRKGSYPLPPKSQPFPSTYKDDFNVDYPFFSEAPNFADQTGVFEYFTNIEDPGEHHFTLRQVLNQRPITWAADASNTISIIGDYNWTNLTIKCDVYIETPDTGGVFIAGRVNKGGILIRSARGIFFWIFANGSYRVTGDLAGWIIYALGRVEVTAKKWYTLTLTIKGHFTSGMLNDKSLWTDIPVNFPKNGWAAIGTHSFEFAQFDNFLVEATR
Method in brief: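 Brain-derived Twitcher mouse 145M-Twi cells stably expressing human GALC-G270D or wild-type GALC, treated live, then residual GALC activity read by fluorescence of HMU-b-Gal substrate (0.1 mM final) in citrate-phosphate buffer pH 5.2 with sodium taurocholate. Signal increase indicates enhancement.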

activation, inactive:
COc1ccc(Cn2c(SCC(=O)NCc3ccc(Cl)cc3)nc3ccsc3c2=O)cc1 -17.5%, Cc1noc(-c2ccc(-c3noc(-c4cccc(F)c4)n3)cc2)n1 -20.5%, NC(=O)C1CCN(C(=O)c2cccc(NC(=O)c3nsc4ccccc34)c2)CC1 -9.51%, O=C(C1COc2ccccc2O1)N1CCN(c2nc3ccc(F)cc3s2)CC1 (stereo unspecified) -20.4%, CSC1=NC2(CCN(C(=O)NC3CCCCC3)CC2)N=C1c1ccc(C)cc1 -10%, COc1ccc(N2Cc3cccc(C(=O)Nc4cc(C)cc(C)c4)c3C2=O)cc1 -9.74%, CCc1cccc(C)c1Nc1c(-c2ccccc2)nc2sccn12 -4.8%, CCc1c(CN2CCN(c3cccc(C)c3C)CC2)csc1C 2.31%, Fc1ccc(CNc2ncnc3onc(-c4ccc(F)cc4)c23)cc1 -25.7%, Cc1ccc(C#N)c(=O)n1CC(=O)Nc1ccccc1C(F)(F)F 17.4%, O=C(C1COc2ccccc2O1)N(Cc1cccnc1)c1nc2ccc(Cl)cc2s1 (stereo unspecified) -15.7%, Cn1c(=O)c2c(nc(SCC(=O)Nc3ccccc3)n2Cc2ccccc2F)n(C)c1=O -13.5%, Nc1c(C(=O)Nc2ccc(OC(F)(F)F)cc2)nnn1Cc1ccccc1 -11.9%, CCOc1ccc(CNC(=O)CSc2cc(=O)n(CC)c3ccccc23)cc1 -18.2%, CCN(CC)S(=O)(=O)c1nnc(NC(=O)COc2ccccc2F)s1 -14.9%, Cc1cccc(C)c1NC(=O)NCCc1c[nH]c2ccccc12 -6.27%, COCCCn1c(=N)c(C(=O)NCc2ccco2)cc2c(=O)n3ccccc3nc21 -2.16%, CCCNC(=O)C1CCC(Cn2c(=O)c3sccc3n(Cc3ccccc3F)c2=O)CC1 (stereo unspecified) -8.66%, Cc1ccc2c(c1)-c1onc(C(=O)N3CCN(c4ccc(Cl)cc4)CC3)c1CO2 -4.67%, O=C(NC1CCCCC1)c1ccc(Cn2c(SCc3ccc(F)cc3)nc3cccnc32)cc1 -7.23%, Cc1ccc(-n2c3nc(=O)[nH]c(=O)c-3cc3c(C)nn(-c4ccccc4)c32)cc1Cl -11%, CCOC(=O)N1CCN(Cc2nc3cc(NC(=O)c4ccccc4[N+](=O)[O-])ccc3n2C(C)C)CC1 1.18%, Brc1ccc(-c2nc3ccccn3c2Nc2ccc3c(c2)OCCO3)o1 -35.5%, O=S(=O)(c1ccccc1)c1nnn2c1nc(NCc1ccc(F)cc1)c1sccc12 -18.2%, COc1cccc(N2CCN(c3ncnc4c3nc3n4CCCCC3)CC2)c1 1.72%, Cc1oc(-c2ccc(Cl)cc2)nc1CS(=O)CC(=O)N1CCN(c2cccc(C(F)(F)F)c2)CC1 (stereo unspecified) -16.9%, CCCCN(CC)C(=O)CSc1nc2n[nH]c(C)c2c(=N)n1-c1cccc(OC)c1 -14.5%, CNCCCN1c2ccccc2CCc2ccccc21 -12.1%, COc1ccccc1CNC(=O)CCn1nc(C)c2c(C)n(-c3ccccc3)nc2c1=O -16.5%, COc1ccc(OCC(=O)NC2CC(=O)N(c3cccc(OC)c3)C2)cc1 (stereo unspecified) -9.64%, CN(C)S(=O)(=O)c1ccc2c(c1)N(CC(=O)Nc1ccc(OC(F)(F)F)cc1)C(=O)CS2 -35.7%, C=Cc1ccc(Cn2c(C(=O)O)c(CNC3CCCC3)c3ccc(C)cc32)cc1 -7.53%, CCOC(=O)c1c(S(=O)(=O)N2CCC(C(=O)NCc3ccc(F)cc3)CC2)c(C)n(C)c1C -18.6%, Cc1cccc(N(C)C(=O)CCS(=O)(=O)c2ccc3c(c2)oc(=O)n3C)c1 -17.7%, COc1ccc(NC(=O)c2cc(S(=O)(=O)N3CCCCCC3)cn2C)c(OC)c1 1.54%, CCN(CC)CCOc1ccccc1C(=O)CCc1ccccc1 -13.8%, COc1ccc(NC(=O)CN2CCN(Cc3ccc(F)cc3)S2(=O)=O)cc1Cl -13.6%, CC(C(=O)NCc1ccc(Cl)cc1)n1ccc2cc(S(=O)(=O)N3CCCCCC3)ccc21 (stereo unspecified) -0.135%, CCCN(CCC)CC(O)Cn1cc(/C=C/C(=O)c2ccc(C)cc2)c2ccccc21 (stereo unspecified) -10.2%, CCC(=O)N1CCc2cc(Br)cc(S(=O)(=O)N3CCN(c4ccc(C)cc4)C(C)C3)c21 (stereo unspecified) -0.0868%, CCOC(=O)c1c(C)[nH]c(C)c1S(=O)(=O)N1CCC(C(=O)N2CCN(c3ccccc3)CC2)CC1 -8.65%, O=C(NCc1ccccc1Cl)C1CCCN(S(=O)(=O)c2cccc3nsnc23)C1 (stereo unspecified) -15.5%, COc1ccc(OC)c(CNC(=O)c2c3c(nc4ccccc24)C(=O)N(C2CCCCC2)C3)c1 -7.77%, CCOC(=O)c1c(C)[nH]c(C)c1S(=O)(=O)N1CCC(C(=O)N2CCN(c3cccc(Cl)c3)CC2)CC1 -6.23%, Cc1ccccc1-c1noc(-c2cccnc2NCc2ccco2)n1 -9.74%, COc1ccc(N2CCN(c3csc4ccc(Cl)cc4c3=O)CC2)cc1 -16.9%, Cc1c(C(=O)N(Cc2ccc(N(C)C)cc2)CC2CCCO2)oc2ccc(Cl)cc12 (stereo unspecified) -15.8%, CCOc1ccc(Nc2nc3cc(Cl)c(Cl)cc3nc2-n2nc(C)cc2C)cc1 -12.2%, COc1ccc(Cl)cc1NC(=O)c1cn(C2CCCCC2)c(=O)c2c1c1ccccc1n2C -14.9%, COc1ccccc1CCNC(=O)C1CCN(c2nnc(-n3cccc3CNc3ccc(C)cc3)s2)CC1 -5.69%, CCOC(=O)c1c(C)[nH]c(C)c1S(=O)(=O)N1CCCC(C(=O)Nc2ccc(C)cn2)C1 (stereo unspecified) -6.56%, CCOc1ccc(Nc2ncnc3c2nc2n3CCCC2)cc1 -8.44%, O=C1OC(CN2CCOCC2)CN1/N=C/c1ccc([N+](=O)[O-])o1 (stereo unspecified) -10.7%, CCc1ccccc1Nc1nn2c(=O)c3ccc(C(=O)NCc4ccccc4OC)cc3nc2s1 -8.34%, Cc1ccc(-n2nc(CO)c(C(=O)NCCCc3ccccc3)n2)cc1C -15.3%, CCN(c1ccccc1)c1ccc2cc(S(=O)(=O)N3CCCC3)ccc2n1 -16.9%, COc1ccccc1Cn1cc(C(=O)c2ccc(C)cc2)c(=O)c2cc(C)ccc21 -16.4%, COc1ccc(CNC(=O)c2cc(-c3ccc(C)cc3)nc3n[nH]c(-c4ccc(Br)cc4)c23)cc1 -14.1%, NS(=O)(=O)c1ccc(NC(=O)CN2C(=O)COc3ccc(Cl)cc32)cc1 -7.05%, O=C(O)c1ccc2nc(-c3cc4cccc(O)c4oc3=O)[nH]c2c1 -14.2%, Cc1ccc(C)c(S(=O)(=O)c2nnn3c2nc(NC(C)C)c2sccc23)c1 -0.615%, CCOC(=O)CNC(=O)Nc1cc(C(=O)NCc2ccccc2OC)ccc1N1CCCC1 -5.87%, CCOC(=O)c1oc2ccc(S(=O)(=O)n3nc(-c4cc(OC)c(OC)c(OC)c4)cc3N)cc2c1C -3.69%, Cc1ccccc1C(=O)NC1(C(F)(F)F)N=C(c2ccccc2)N(C2CCCCC2)C1=O (stereo unspecified) -8.3%, CCOc1ccccc1CNC(=O)c1c(C)oc2ncnc(N3CCOCC3)c12 -7.57%, CCOc1ccc(NC(=O)CSc2ccc(-c3sc(-c4ccccc4)nc3C)nn2)cc1 -13.1%, COC(=O)C(CCSC)NC(=O)c1cc2c(n(-c3ccc(Cl)cc3)c1=O)CCCC2=O (stereo unspecified) -16.1%, O=C(NC(=O)c1ccccc1)Nc1ccc(-c2cc(C(F)(F)F)nn2-c2ccccc2)cc1 -10.2%, CCOc1ccc(NC(=O)C2CCCN(c3ccc(Sc4ccc(C)cc4)nn3)C2)cc1 (stereo unspecified) -7.95%, CCC(Oc1ccccc1F)C(=O)N1CCC(c2nc3ccccc3s2)CC1 (stereo unspecified) -9.98%, COc1ccc(Cl)cc1NC(=O)C1CCCN(c2ncnc3onc(C)c23)C1 (stereo unspecified) -17%, CC(C)C(=O)Nc1ccccc1OCc1cc(=O)n2ccccc2n1 1.35%, Cc1ccc2oc(-c3ccc(C)c(NC(=O)c4ccc(N5CCC(C)CC5)c([N+](=O)[O-])c4)c3)nc2c1 -25%, O=C(CCCN1C(=O)C(c2ccccc2)Oc2cccnc21)Nc1ccccc1C(F)(F)F (stereo unspecified) -2.35%, CCCn1c(CNC(=O)c2ccc(F)cc2)nc2ccccc21 -11.6%, CC(C)CN(CCCNC(=O)CN1N=C(c2ccc(Cl)cc2)CCC1=O)CC(C)C -15.9%, Cc1cccc(NC(=O)c2ccc3snnc3c2)c1C -8.84%, O=c1c2cc3c(cc2n(Cc2ccc(F)cc2)c(=O)n1Cc1nc(-c2ccccc2)no1)OCO3 -3.58%, Cc1cccc(NC(=O)c2cc3c(=O)n4cccc(C)c4nc3s2)c1C 1.74%, CCOc1ccccc1NC(=O)C(CC(C)C)NS(=O)(=O)c1ccc2c(c1)oc(=O)n2C (stereo unspecified) 0.333%, COc1cc(CNC(=O)c2ccc3nc(CCc4ccccc4)oc3c2)cc(OC)c1OC -11%, COC(=O)c1c(SC)nc2ccccc2c1OCc1ccc(Cl)cc1 -6.55%, Clc1ccc2c(c1)NC(c1ccncc1)=NC(c1cccs1)=N2 -12.7%, COc1ccc2c(c1)CCc1c(C(=O)Nc3c(C)nn(Cc4ccccc4C)c3C)noc1-2 -6.81%, Cc1ccsc1C(=CCCN1CCC[C@@H](C(=O)O)C1)c1sccc1C -15.9%, CNS(=O)(=O)c1cn(CC(=O)N2CCN(c3cccc(C)c3C)CC2)cc1S(=O)(=O)NC -8.7%, O=c1cc(-c2ccccc2)nc(SCc2nc(-c3ccc(Cl)cc3)no2)[nH]1 -6.6%, Cc1ccc(S(=O)(=O)N(Cc2nc(-c3cccc(C)c3)no2)C2CCCCC2)cc1 -5.37%, O=C(COCc1cc(-c2ccc3c(c2)OCO3)on1)N1CCN(c2cccc(Cl)c2)CC1 -17.2%, CCN1CCN(C(=O)c2cnn(-c3cccc(Cl)c3)c2C2CCN(C(=O)OC(C)(C)C)CC2)CC1 -27.2%, CCc1nonc1NC(=O)c1oc2ccc(C)cc2c1C -24.8%, COc1ccc(-c2cc(-c3ccc4c(c3)NC(=O)CO4)nc3c2COc2ccc(F)cc2-3)cc1 -15%, CCOC(=O)c1ccc(-n2c(-c3ccc(C)cc3)c(C)n3c4c(=O)n(C)c(=O)n(C)c4nc23)cc1 -11%, CCOc1ccc(N2C(=O)c3n[nH]c(-c4cccs4)c3C2c2cccc(F)c2)cc1 (stereo unspecified) -11.4%, Cc1ccc(Cl)cc1-n1ncc2c(NCCCc3ccccc3)ncnc21 -36.3%, Cc1c(Nc2nc3ccccc3n3c(C)nnc23)cccc1C(=O)O -12%
